# In the supplement of paper PMC11348887:
# Values joined by “and” are separate entries in the source; they are usually repeats but may differ in a detail not shown here. Identical values can stand only once. Counter-ions that a name gives are not always drawn. The list shows a part of the results. No stated cut-off is given here; in the data, active = -2 or less and inactive = the rest. Single values are uncertain, as repeats are few or missing.
# Tested on: hPSC-derived cortical neurons (WA09)
# Experiment: nuclei number (viability) z-score; higher = more surviving cells
# Details: 5 µM; treatment: days 7-14 after plating, readout day 21
# 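Further: nuclei counted from DAPI counterstain by automated high-content image analysis, four fields per well at ×20 in 384-well plates, with sequential b-score then z-score normalization.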
row,SMILES,nuclei number (z-score)
1,O=C1C(=O)N(Cc2ccc(Cl)c(Cl)c2)c2ccccc21 [Apoptosis Activator 2],inactive: -0.202
2,CC(C)(F)C[C@H](N[C@@H](c1ccc(-c2ccc(S(C)(=O)=O)cc2)cc1)C(F)(F)F)C(=O)NC1(C#N)CC1 [Odanacatib (MK-0822)],inactive: 0.121
3,COc1cc(C)c(/C=C/C(C)=C/C=C/C(C)=C/C(=O)O)c(C)c1C [Acitretin],inactive: 0.346
4,C[C@@H]1COCCN1c1cc(C2([S@](C)(=N)=O)CC2)nc(-c2cc[nH]c3nccc2-3)n1,inactive: -0.136
5,Cc1cc(N2C[C@@H](C)N[C@@H](C)C2)ncc1-c1ccc(-c2nc3c(ccn3C)c(=O)[nH]2)cc1,inactive: 0.1
6,CNC(=O)c1nn(C)c2c1C(C)(C)Cc1cnc(Nc3ccc(N4CCN(C)CC4)cc3)nc1-2,active: -5.33
7,CC(C)(O)CC[C@@H](O)[C@](C)(O)[C@H]1CC[C@@]2(O)C3=CC(=O)[C@@H]4C[C@@H](O)[C@@H](O)C[C@]4(C)[C@H]3CC[C@]12C [20-Hydroxyecdysone],inactive: 0.154
8,CN[C@@H](C)C(=O)N[C@H](C(=O)N1CCC[C@H]1C(=O)Nc1snnc1-c1ccccc1)C1CCCCC1,inactive: 0.61
9,COc1cc2nc(N3CCN(C(=O)C4CCCO4)CC3)nc(N)c2cc1OC (configuration not stated) [Terazosin HCl],inactive: -0.356
10,Oc1ccc(O)cc1 [Hydroquinone],inactive: -0.378
11,CN1CCN(c2cccc(Nc3nc4c(-c5ccc(S(C)(=O)=O)cc5)cccn4n3)c2)CC1,inactive: 0.38
12,CC(=O)OCC(=O)[C@@]1(O)CC[C@H]2[C@@H]3CCC4=CC(=O)CC[C@]4(C)[C@H]3C(=O)C[C@@]21C [Cortisone acetate],inactive: -0.138
13,CCCCC(=O)O[C@]1(C(=O)CO)[C@@H](C)C[C@H]2[C@@H]3CCC4=CC(=O)C=C[C@]4(C)[C@@]3(F)[C@@H](O)C[C@@]21C [Betamethasone Valerate],inactive: -0.147
14,CNS(=O)(=O)Nc1nccc(Cc2c(C)c3ccc(Oc4ncccn4)cc3oc2=O)c1F,inactive: 1.56
15,OC[C@@H](O)[C@@H](O)[C@H](O)[C@@H](O)CO [Sorbitol],inactive: 7.16
16,CC(C)(C)c1cc(C(=O)C(C#N)=NNc2cccc(Cl)c2)no1,inactive: 2.81
17,CN(C)CCCOc1nn(Cc2ccccc2)c2ccccc12 [Benzydamine HCl],inactive: 0.236
18,O=C1c2c(O)cc(O)cc2OC(c2ccc(O)c(O)c2)C1O (configuration not stated) [Taxifolin (Dihydroquercetin)],inactive: 0.353
19,FC(F)(F)c1ccc(/C=C/c2nc(COc3ccc(CCCCn4ccnn4)cc3)co2)cc1 [Mubritinib (TAK 165)],inactive: -0.445
20,N#Cc1ccc(C(c2ccc(C#N)cc2)n2cncn2)cc1 [Letrozole],inactive: 2.78
21,Clc1ccc(CCC(Cn2ccnc2)Sc2c(Cl)cccc2Cl)cc1 (configuration not stated) [Butoconazole nitrate],active: -3.55
22,C[C@@]1(C(=O)Nc2ccc(F)nc2)CCCN1c1nc(Nc2cc(C3CC3)n[nH]2)c2cccn2n1,active: -6.9
23,CN(C)C(=O)Nc1cccc(-c2ccc(N(C)C)cc2)c1 [Atglistatin],inactive: -0.156
24,O=C(Nc1cccc(Cl)c1)c1ccccn1,inactive: 0.882

row,SMILES,nuclei number (z-score)
1,C[N+]1(C)CCC(OC(=O)C(O)(c2ccccc2)C2CCCC2)C1 (configuration not stated) [Glycopyrrolate],inactive: 0.288
2,CCOC(=O)[C@@H](N)Cc1ccc(-c2cc(O[C@H](c3ccc(Cl)cc3-n3ccc(C)n3)C(F)(F)F)nc(N)n2)cc1 [Telotristat Etiprate (LX 1606 Hippurate)],inactive: 1.34
3,CC(C)CC(N)=O [Isovaleramide],inactive: 3.32
4,CN1CCN(C2=Nc3ccccc3Oc3ccc(Cl)cc32)CC1 [Loxapine Succinate],inactive: 0.791
5,N=C(NCCCCCCNC(=N)NC(=N)Nc1ccc(Cl)cc1)NC(=N)Nc1ccc(Cl)cc1 [Chlorhexidine HCl],active: -5.14
6,COc1c2occc2cc2ccc(=O)oc12 [Methoxsalen],inactive: -0.899
7,Cc1nnc(C(=O)NC(C)(C)c2nc(C(=O)NCc3ccc(F)cc3)c(O)c(=O)n2C)o1 [Raltegravir (MK-0518)],inactive: 0.297
8,c1ccc(NCc2ccc(CNc3ccccn3)cc2)nc1,inactive: -0.416
9,COC(=O)c1ccc2c(c1)nc(NC(=O)c1ccccc1)n2CCCc1ccccc1,inactive: 8.67
10,CN1CCN(Cc2ccc(Nc3ncc(Cl)c(Nc4ccccc4S(=O)(=O)N(C)C)n3)cc2)CC1,active: -5.89
11,O=C(O)c1cn(-c2ccc(F)cc2)c2cc(N3CCNCC3)c(F)cc2c1=O [Sarafloxacin HCl],inactive: 0.133
12,Cc1cc2c(cc1CC(=O)c1sccc1S(=O)(=O)Nc1onc(C)c1Cl)OCO2 [Sitaxentan sodium],inactive: 10.3
13,O=C(NC[C@H]1CN(c2ccc(N3CCOCC3=O)cc2)C(=O)O1)c1ccc(Cl)s1 [Rivaroxaban],inactive: 0.944
14,C[C@@H]1C[C@H]2[C@@H]3C[C@H](F)C4=CC(=O)C=C[C@]4(C)[C@@]3(F)[C@@H](O)C[C@]2(C)[C@@]1(O)C(=O)CO [Flumethasone],inactive: 1.91
15,COC(=O)C1=C(C)NC(C)=C([N+](=O)[O-])C1c1ccccc1C(F)(F)F (configuration not stated),inactive: 2.76
16,COc1ccc(-c2ccc3c(N4CCOC[C@@H]4C)nc(N4CCOC[C@@H]4C)nc3n2)cc1CO,inactive: -1.03
17,CC(C)C[C@H](NP(=O)(O)O[C@@H]1O[C@@H](C)[C@H](O)[C@@H](O)[C@H]1O)C(=O)N[C@@H](Cc1c[nH]c2ccccc12)C(=O)O [Phosphoramidon Disodium Salt],inactive: 0.316
18,COc1ccc2c(c1)CCC1C2CCC2(C)C(NCCCCCCN3C(=O)C=CC3=O)CCC12 (configuration not stated),inactive: 1.91
19,COc1c(C)c(C(=O)c2ccc(N)c(C(=O)O)c2)n2ccccc12,inactive: -0.291
20,COc1nccc(-c2c(-c3ccc(F)cc3)ncn2C2CCC(O)CC2)n1 (configuration not stated),inactive: 0.63
21,Cc1c(C(=O)Nc2ccc(Oc3ccnc4[nH]cc(-c5ccccc5)c34)c(F)c2)c(=O)n(-c2ccc(F)cc2)n1C,inactive: 0.287
22,CN[C@@H](C)C(=O)N[C@H](C(=O)N1CCC[C@H]1c1nc(C(=O)c2ccc(F)cc2)cs1)C1CCCCC1,inactive: -0.0581
23,CCCc1cc(C)[nH]c(=O)c1CNC(=O)c1cc(-c2ccc(N3CCN(C(C)C)CC3)nc2)cc2c1cnn2C(C)C,inactive: 0.555
24,"O=c1cc(-c2ccccc2)oc2c(O)c(O)ccc12 [7,8-Dihydroxyflavone]",inactive: 0.648

row,SMILES,nuclei number (z-score)
1,CCN(CC)CCOC(=O)C1(C2CCCCC2)CCCCC1 [Dicyclomine HCl],inactive: 1.98
2,CC(=O)Oc1ccccc1C(=O)Nc1ncc([N+](=O)[O-])s1 [Nitazoxanide],inactive: -0.475
3,NC(=O)c1ccc(N(C(N)=O)c2c(F)cccc2F)nc1-c1ccc(F)cc1F,inactive: 0.794
4,N=C1NC(=O)/C(=C/c2ccc(O)cc2)S1 [Mirin],inactive: 6.84
5,Nc1c(CC(=O)O)cccc1C(=O)c1ccccc1 [Amfenac Sodium Monohydrate],inactive: -0.161
6,CC(C)(C)C(=O)Nc1ccc2c(c1)C(=O)C(=O)c1ccccc1-2,inactive: -0.0475
7,COc1ccc([C@@H]2CC(=O)c3c(O)cc(O)cc3O2)cc1O [Hesperetin],inactive: -0.367
8,COc1cc(Br)c(Nc2nc(-c3c(C)nc4ncccn34)cs2)c(Br)c1,inactive: 0.928 and inactive: -0.582
9,O=C(O)CCCCCCCC(=O)O [Azelaic acid],inactive: -0.293
10,COC(=O)Nc1nc2cc(C(=O)c3cccs3)ccc2[nH]1 [Nocodazole],inactive: -1.59
11,Cc1ccc(C(=O)c2ccc(CC(=O)O)n2C)cc1 [Tolmetin Sodium],inactive: -0.185
12,FC(F)(F)C(Cl)Br (configuration not stated) [Halothane],inactive: 0.712
13,CCN[C@H]1CN(CCCOC)S(=O)(=O)c2sc(S(N)(=O)=O)cc21 [Brinzolamide],inactive: 0.768
14,CC(C)Oc1ccc(-c2c[nH]cc2CN(C)CCN)cc1,inactive: 0.405
15,Cc1ncc(C[n+]2csc(CCO)c2C)c(N)n1 [Thiamine HCl (Vitamin B1)],inactive: -0.0576
16,CC(C)c1c(C(=O)Nc2ccccc2)c(-c2ccccc2)c(-c2ccc(F)cc2)n1CC[C@@H](O)C[C@@H](O)CC(=O)O [Atorvastatin Calcium],active: -2.68
17,CC(C)(C)c1cnc(CSc2cnc(NC(=O)C3CCNCC3)s2)o1,active: -3.82
18,C[C@@H](NCCCc1cccc(C(F)(F)F)c1)c1cccc2ccccc12 [Cinacalcet HCl],inactive: -0.981
19,CC(=O)Nc1cccc(-n2c(=O)n(C3CC3)c(=O)c3c(Nc4ccc(I)cc4F)n(C)c(=O)c(C)c32)c1,inactive: -0.948
20,Nc1[nH]cnc2ncnc1-2 [Adenine HCl],inactive: -0.0203
21,OC(Cn1cncn1)(Cn1cncn1)c1ccc(F)cc1F [Fluconazole],inactive: -0.609
22,NCCc1c[nH]cn1 [Histamine Phosphate],inactive: 0.766
23,NCCc1c[nH]cn1 [Histamine 2HCl],inactive: 0.35
24,Cc1ccc(S(=O)(=O)c2ccc([N+](=O)[O-])o2)cc1,active: -3.2
